Source: PMC9372040
These are yes or no findings as the source states them, for the method shown. For some assays here: Binding seen in cells or lysates may run through a third protein. Some binding calls cover weakened binding; strength is not graded here. For some assays here: Tags and fused reporters may be left off the sequences shown.

The chains behind the UniProt entries cited, without tags or fusion partners. Where a name states a change or a piece, a line headed by the entry shows the natural chain unless it says otherwise.
UniProt Q08775: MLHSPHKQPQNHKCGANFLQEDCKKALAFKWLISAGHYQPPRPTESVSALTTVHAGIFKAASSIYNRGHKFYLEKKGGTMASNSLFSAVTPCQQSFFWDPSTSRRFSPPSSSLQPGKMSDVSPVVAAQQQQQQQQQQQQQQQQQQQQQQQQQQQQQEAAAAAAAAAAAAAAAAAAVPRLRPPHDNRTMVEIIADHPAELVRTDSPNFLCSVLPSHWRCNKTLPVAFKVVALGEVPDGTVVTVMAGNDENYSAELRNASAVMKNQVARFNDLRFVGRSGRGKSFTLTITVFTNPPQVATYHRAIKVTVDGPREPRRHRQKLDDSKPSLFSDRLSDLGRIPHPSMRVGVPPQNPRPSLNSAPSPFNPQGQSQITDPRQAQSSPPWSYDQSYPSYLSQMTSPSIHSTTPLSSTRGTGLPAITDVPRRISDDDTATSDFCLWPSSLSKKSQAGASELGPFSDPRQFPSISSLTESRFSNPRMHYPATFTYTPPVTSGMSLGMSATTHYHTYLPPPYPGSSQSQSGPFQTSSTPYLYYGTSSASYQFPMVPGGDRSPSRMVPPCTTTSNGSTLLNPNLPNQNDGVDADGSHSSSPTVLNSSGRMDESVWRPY
UniProt Q3URK3: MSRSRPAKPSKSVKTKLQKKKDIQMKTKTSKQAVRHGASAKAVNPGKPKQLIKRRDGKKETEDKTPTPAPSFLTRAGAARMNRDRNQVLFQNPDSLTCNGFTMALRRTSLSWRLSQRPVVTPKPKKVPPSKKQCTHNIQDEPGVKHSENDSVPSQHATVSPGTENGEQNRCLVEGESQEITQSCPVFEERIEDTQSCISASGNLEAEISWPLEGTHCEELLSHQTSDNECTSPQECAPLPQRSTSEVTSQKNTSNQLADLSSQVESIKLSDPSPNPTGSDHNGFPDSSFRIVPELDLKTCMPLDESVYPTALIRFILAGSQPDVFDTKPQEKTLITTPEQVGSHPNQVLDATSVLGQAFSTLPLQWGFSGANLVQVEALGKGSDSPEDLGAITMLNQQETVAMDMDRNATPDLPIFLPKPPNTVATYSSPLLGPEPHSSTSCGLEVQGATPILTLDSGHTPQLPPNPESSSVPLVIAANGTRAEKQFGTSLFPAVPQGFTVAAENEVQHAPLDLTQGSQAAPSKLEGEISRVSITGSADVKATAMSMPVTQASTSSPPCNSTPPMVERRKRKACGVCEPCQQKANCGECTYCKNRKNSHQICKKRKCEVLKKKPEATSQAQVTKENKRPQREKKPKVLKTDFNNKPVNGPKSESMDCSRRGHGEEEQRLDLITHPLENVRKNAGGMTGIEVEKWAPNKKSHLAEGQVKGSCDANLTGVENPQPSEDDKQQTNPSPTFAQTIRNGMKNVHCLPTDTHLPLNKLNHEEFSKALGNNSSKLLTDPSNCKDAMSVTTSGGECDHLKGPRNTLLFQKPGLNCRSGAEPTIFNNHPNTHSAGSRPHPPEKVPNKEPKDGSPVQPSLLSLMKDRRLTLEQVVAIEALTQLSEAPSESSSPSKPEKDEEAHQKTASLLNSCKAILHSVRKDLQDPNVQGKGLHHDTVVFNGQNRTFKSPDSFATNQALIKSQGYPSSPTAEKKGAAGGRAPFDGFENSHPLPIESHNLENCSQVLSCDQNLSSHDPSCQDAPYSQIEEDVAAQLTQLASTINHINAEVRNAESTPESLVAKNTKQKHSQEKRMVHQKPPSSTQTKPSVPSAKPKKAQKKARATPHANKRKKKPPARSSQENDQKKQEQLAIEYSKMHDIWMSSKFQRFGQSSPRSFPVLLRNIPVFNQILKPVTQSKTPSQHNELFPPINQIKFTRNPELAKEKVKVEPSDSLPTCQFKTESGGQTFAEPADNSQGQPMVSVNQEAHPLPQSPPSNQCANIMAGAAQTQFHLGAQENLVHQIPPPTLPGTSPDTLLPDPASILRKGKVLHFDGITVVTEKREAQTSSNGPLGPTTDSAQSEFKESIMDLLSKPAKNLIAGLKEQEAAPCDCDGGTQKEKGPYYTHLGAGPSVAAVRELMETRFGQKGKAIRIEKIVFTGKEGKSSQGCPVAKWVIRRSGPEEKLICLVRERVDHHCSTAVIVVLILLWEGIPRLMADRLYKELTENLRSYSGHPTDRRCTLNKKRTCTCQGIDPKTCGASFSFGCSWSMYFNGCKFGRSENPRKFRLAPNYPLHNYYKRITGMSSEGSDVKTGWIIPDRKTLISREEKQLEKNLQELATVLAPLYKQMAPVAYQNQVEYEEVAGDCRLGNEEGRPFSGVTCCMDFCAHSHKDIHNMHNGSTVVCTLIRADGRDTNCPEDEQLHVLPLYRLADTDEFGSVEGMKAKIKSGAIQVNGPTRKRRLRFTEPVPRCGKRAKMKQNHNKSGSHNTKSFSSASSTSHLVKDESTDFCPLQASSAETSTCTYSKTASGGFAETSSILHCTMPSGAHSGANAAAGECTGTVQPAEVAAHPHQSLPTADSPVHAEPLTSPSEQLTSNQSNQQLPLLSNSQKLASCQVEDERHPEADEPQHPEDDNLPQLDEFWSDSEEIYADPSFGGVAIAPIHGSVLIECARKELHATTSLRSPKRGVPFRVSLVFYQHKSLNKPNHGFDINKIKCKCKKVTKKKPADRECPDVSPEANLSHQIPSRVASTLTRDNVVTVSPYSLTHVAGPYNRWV

Experiments:
HA-RUNX2 = HA-RUNX2 (UniProt Q08775); experiment: co-IP; HEK293T co-transfected with HA-RUNX2 and a Flag-TET construct; lysis after 48 h in EBC buffer (50 mM Tris pH 7.5, 120 mM NaCl, 0.5% NP-40); anti-Flag or anti-HA beads 3-4 h or overnight at 4 °C; five washes; immunoblot with HA and Flag antibodies
GST-RUNX2 = GST-RUNX2 (UniProt Q08775); experiment: pull-down; purified GST or GST-RUNX2 incubated with purified Flag-TET2-CD in EBC buffer for 3-4 h at 4 °C; three washes with EBC buffer; SDS-PAGE; both purified

| Molecule | binding (HA-RUNX2) | binding (GST-RUNX2) |
| --- | --- | --- |
| Flag-TET2-CD (from UniProt Q4JK59 1042-1912) (domain or fragment) | binds | binds |
| Flag-TET1-Nterm (from UniProt Q3URK3 1-1366) (domain or fragment) | no binding |  |

Second part, the molecule after the results:

| binding (HA-RUNX2) | binding (GST-RUNX2) | Molecule |
| --- | --- | --- |
| binds |  | Flag-TET1 (from UniProt Q3URK3 1-2039) (enzyme) |
| no binding |  | Flag-TET2-Nterm (domain or fragment, UniProt Q4JK59 1-1041) MEQDRTTHAEGTRLSPFLIAPPSPISHTEPLAVKLQNGSPLAERPHPEVNGDTKWQSSQSCYGISHMKGSQSSHESPHEDRGYSRCLQNGGIKRTVSEPSLSGLHPNKILKLDQKAKGESNIFEESQERNHGKSSRQPNVSGLSDNGEPVTSTTQESSGADAFPTRNYNGVEIQVLNEQEGEKGRSVTLLKNKIVLMPNGATVSAHSEENTRGELLEKTQCYPDCVSIAVQSTASHVNTPSSQAAIELSHEIPQPSLTSAQINFSQTSSLQLPPEPAAMVTKACDADNASKPAIVPGTCPFQKAEHQQKSALDIGPSRAENKTIQGSMELFAEEYYPSSDRNLQASHGSSEQYSKQKETNGAYFRQSSKFPKDSISPTTVTPPSQSLLAPRLVLQPPLEGKGALNDVALEEHHDYPNRSNRTLLREGKIDHQPKTSSSQSLNPSVHTPNPPLMLPEQHQNDCGSPSPEKSRKMSEYLMYYLPNHGHSGGLQEHSQYLMGHREQEIPKDANGKQTQGSVQAAPGWIELKAPNLHEALHQTKRKDISLHSVLHSQTGPVNQMSSKQSTGNVNMPGGFQRLPYLQKTAQPEQKAQMYQVQVNQGPSPGMGDQHLQFQKALYQECIPRTDPSSEAHPQAPSVPQYHFQQRVNPSSDKHLSQQATETQRLSGFLQHTPQTQASQTPASQNSNFPQICQQQQQQQLQRKNKEQMPQTFSHLQGSNDKQREGSCFGQIKVEESFCVGNQYSKSSNFQTHNNTQGGLEQVQNINKNFPYSKILTPNSSNLQILPSNDTHPACEREQALHPVGSKTSNLQNMQYFPNNVTPNQDVHRCFQEQAQKPQQASSLQGLKDRSQGESPAPPAEAAQQRYLVHNEAKALPVPEQGGSQTQTPPQKDTQKHAALRWLLLQKQEQQQTQQSQPGHNQMLRPIKTEPVSKPSSYRYPLSPPQENMSSRIKQEISSPSRDNGQPKSIIETMEQHLKQFQLKSLCDYKALTLKSQKHVKVPTDIQAAESENHARAAEPQATKSTDCSVLDDVSESDTPGE |
